Source: the supplement of paper PMC8728848
The list shows a part of the results.

Key:
Test in all cases: glycan array binding signal (z-score within array); higher = stronger binding
Conditions in all cases: glycan notation: IUPAC condensed, linker removed
[1] = molecular target: GlcNAc(b1-4)GlcNAc(b1-4)GlcNAc(b1-4)GlcNAc(b1-4)GlcNAc(b1-4)GlcNAc
Outline: (§1)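 Columns mapping to the same glycan were averaged after glycan names were converted to IUPAC-condensed notation. The data come from 3228 arrays in the Consortium for Functional Glycomics database, limited to those with an available protein sequence. Binding is reported as a within-array Z-score averaged across arrays of one protein sequence and across linkers.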

[2] = molecular target: GlcNAc(b1-4)[GlcNAc(b1-6)]GalNAc
Outline: as §1

[3] = molecular target: GlcNAc(b1-6)Gal(b1-4)GlcNAc
Outline: as §1

GlcNAc(b1-6)GalNAc = molecular target: GlcNAc(b1-6)GalNAc
Outline: as §1

Kdn(a2-3)Gal(b1-3)GlcNAc = molecular target: Kdn(a2-3)Gal(b1-3)GlcNAc
Outline: as §1

Kdn(a2-3)Gal(b1-4)GlcNAc = molecular target: Kdn(a2-3)Gal(b1-4)GlcNAc
Outline: as §1

[4] = molecular target: Man(a1-2)Man(a1-2)Man(a1-3)Man
Outline: as §1

[5] = molecular target: Man(a1-2)Man(a1-2)Man(a1-3)[Man(a1-2)Man(a1-3)[Man(a1-2)Man(a1-6)]Man(a1-6)]Man(b1-4)GlcNAc(b1-4)GlcNAc
Outline: as §1

[6] = molecular target: Man(a1-2)Man(a1-2)Man(a1-3)[Man(a1-2)Man(a1-6)[Man(a1-3)]Man(a1-6)]Man(b1-4)GlcNAc(b1-4)GlcNAc
Outline: as §1

[7] = molecular target: Man(a1-2)Man(a1-2)Man(a1-6)[Man(a1-3)]Man
Outline: as §1

Man(a1-2)Man(a1-3)Man = molecular target: Man(a1-2)Man(a1-3)Man
Outline: as §1

[8] = molecular target: Man(a1-2)Man(a1-3)[Man(a1-2)Man(a1-6)]Man
Outline: as §1

[9] = molecular target: Man(a1-2)Man(a1-3)[Man(a1-3)[Man(a1-6)]Man(a1-6)]Man(b1-4)GlcNAc(b1-4)GlcNAc
Outline: as §1

[10] = molecular target: Man(a1-2)Man(a1-3)[Man(a1-6)]Man(a1-6)[Man(a1-2)Man(a1-3)]Man(b1-4)GlcNAc(b1-4)GlcNAc
Outline: as §1

Man(a1-3)[Man(a1-6)]Man = molecular target: Man(a1-3)[Man(a1-6)]Man
Outline: as §1

[11] = molecular target: Man(a1-3)[Man(a1-6)]Man(a1-6)[Man(a1-3)]Man(b1-4)GlcNAc(b1-4)GlcNAc
Outline: as §1

[12] = molecular target: Man(a1-3)[Man(a1-6)]Man(b1-4)GlcNAc(b1-4)GlcNAc
Outline: as §1

Man(b1-4)GlcNAc = molecular target: Man(b1-4)GlcNAc
Outline: as §1

Neu5Ac(a2-3)Gal = molecular target: Neu5Ac(a2-3)Gal
Outline: as §1

[13] = molecular target: Neu5Ac(a2-3)Gal(b1-3)GalNAc
Outline: as §1

[14] = molecular target: Neu5Ac(a2-3)Gal(b1-3)GalNAc(b1-3)Gal(a1-4)Gal(b1-4)Glc
Outline: as §1

[15] = molecular target: Neu5Ac(a2-3)Gal(b1-3)GalNAc(b1-4)[Neu5Ac(a2-3)]Gal(b1-4)Glc
Outline: as §1

[16] = molecular target: Neu5Ac(a2-3)Gal(b1-3)GalNAc6S
Outline: as §1

[17] = molecular target: Neu5Ac(a2-3)Gal(b1-3)GlcNAc
Outline: as §1

[18] = molecular target: Neu5Ac(a2-3)Gal(b1-3)GlcNAc(b1-3)Gal(b1-3)GlcNAc
Outline: as §1

[19] = molecular target: Neu5Ac(a2-3)Gal(b1-3)GlcNAc(b1-3)Gal(b1-4)GlcNAc
Outline: as §1

[20] = molecular target: Neu5Ac(a2-3)Gal(b1-3)GlcNAc6S
Outline: as §1

[21] = molecular target: Neu5Ac(a2-3)Gal(b1-3)[Fuc(a1-4)]GlcNAc
Outline: as §1

[22] = molecular target: Neu5Ac(a2-3)Gal(b1-3)[Fuc(a1-4)]GlcNAc(b1-3)Gal(b1-4)[Fuc(a1-3)]GlcNAc
Outline: as §1

[23] = molecular target: Neu5Ac(a2-3)Gal(b1-3)[Neu5Ac(a2-3)Gal(b1-4)]GlcNAc
Outline: as §1

[24] = molecular target: Neu5Ac(a2-3)Gal(b1-3)[Neu5Ac(a2-6)]GalNAc
Outline: as §1

Neu5Ac(a2-3)Gal(b1-4)Glc = molecular target: Neu5Ac(a2-3)Gal(b1-4)Glc
Outline: as §1

[25] = molecular target: Neu5Ac(a2-3)Gal(b1-4)GlcNAc
Outline: as §1

[26] = molecular target: Neu5Ac(a2-3)Gal(b1-4)GlcNAc(b1-3)Gal(b1-3)GlcNAc
Outline: as §1

[27] = molecular target: Neu5Ac(a2-3)Gal(b1-4)GlcNAc(b1-3)Gal(b1-4)GlcNAc
Outline: as §1

[28] = molecular target: Neu5Ac(a2-3)Gal(b1-4)GlcNAc(b1-3)Gal(b1-4)GlcNAc(b1-3)Gal(b1-4)GlcNAc
Outline: as §1

B1: STA (Solanum tuberosum) (protein)
chain: NASAPLPYPQCGLKKGGGKCIKTGECCSIWGWCGTTSDYCAPGYCQKQCPGPYPQGRCGWQANGKSCPTGTGQCCSNAGWCGTTSDYCAPNNCQSQCKLPPPPPSPPPPPPSPPPPSPPPPPPSPPPPSPSPPPPPPSPPPPSPPPPSPPPPSPPPPPSPSPPPPPPSPPPPPPPLPYPQCGMKKGGGKCIKTGECCSIWGWCGTTSKYCSPGYCQMQCPDPYPEGRCGWQANGKSCPTGTGQCCSNAGWCGTTSAYCAPVNCQAQCNTTTLTSPIKNRMRGIESFMLNVV
[1]
  glycan array binding signal (z-score): 2.56
[2]
  glycan array binding signal (z-score): 1.43
[3]
  glycan array binding signal (z-score): 1.96
GlcNAc(b1-6)GalNAc
  glycan array binding signal (z-score): 2.41
Kdn(a2-3)Gal(b1-3)GlcNAc
  glycan array binding signal (z-score): -0.512
Kdn(a2-3)Gal(b1-4)GlcNAc
  glycan array binding signal (z-score): 2.19
[4]
  glycan array binding signal (z-score): -0.509
[5]
  glycan array binding signal (z-score): 0.273
[6]
  glycan array binding signal (z-score): -0.15
[7]
  glycan array binding signal (z-score): -0.506
Man(a1-2)Man(a1-3)Man
  glycan array binding signal (z-score): -0.503
[8]
  glycan array binding signal (z-score): -0.511
[9]
  glycan array binding signal (z-score): 0.407
[10]
  glycan array binding signal (z-score): 0.29
Man(a1-3)[Man(a1-6)]Man
  glycan array binding signal (z-score): -0.506
[11]
  glycan array binding signal (z-score): 0.27
[12]
  glycan array binding signal (z-score): 0.407
Man(b1-4)GlcNAc
  glycan array binding signal (z-score): -0.504
Neu5Ac(a2-3)Gal
  glycan array binding signal (z-score): -0.507
[13]
  glycan array binding signal (z-score): -0.512
[14]
  glycan array binding signal (z-score): -0.501
[15]
  glycan array binding signal (z-score): -0.502
[16]
  glycan array binding signal (z-score): -0.5
[17]
  glycan array binding signal (z-score): -0.502
[18]
  glycan array binding signal (z-score): -0.51
[19]
  glycan array binding signal (z-score): 0.185
[20]
  glycan array binding signal (z-score): -0.492
[21]
  glycan array binding signal (z-score): -0.518
[22]
  glycan array binding signal (z-score): -0.408
[23]
  glycan array binding signal (z-score): -0.505
[24]
  glycan array binding signal (z-score): -0.513
Neu5Ac(a2-3)Gal(b1-4)Glc
  glycan array binding signal (z-score): -0.506
[25]
  glycan array binding signal (z-score): 1.74
[26]
  glycan array binding signal (z-score): -0.49
[27]
  glycan array binding signal (z-score): 1.03
[28]
  glycan array binding signal (z-score): 1.29
